In the supplement of paper PMC11417369:
± gives the standard deviation of the averaged measurements. This is one part of the list.

System: PfAP2-EXP AP2 domain (GST-tagged)
Test: gcPBM binding intensity (ln(normalized median fluorescence intensity)); higher = stronger DNA binding
Outline: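 Binding intensity is the highest Masliner-normalised natural-log median intensity over replicate spots in either probe orientation. To obtain it, GST-tagged P. falciparum DNA-binding domains made in E. coli were incubated for 1 h on an Agilent 4 × 180k array of primer-extended double-stranded 36-bp intergenic genomic probes plus negative controls. Detection used Alexa488 anti-GST antibody with scanning at 488 nm.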

| Sequence | gcPBM binding intensity (ln) |
| --- | --- |
| GTACCTATTTCATACACACACACACCCAAACAAACA [CACACA_site976] | 8.99 ± 0.4 |
| CATTTGCACCCGCACACACACATAAAAAGAAAAATA [CACACA_site4350] | 9.37 ± 0.52 |
| TAATTTTTTTTAATAACACACATATAAATATAAATA [CACACA_site6521] | 8.17 ± 0.45 |
| CTTGTACCTAGAAATACACACAATTCTATAACTTAT [CACACA_site7355] | 8.47 ± 0.2 |
| AATGTAGAAATGGGTGCACACACATATATAATATAT [CACACA_site8799] | 9.12 ± 0.15 |
| AATGTGTAGACACGCACACACAAAAAAATATATATA [CACACA_site5595] | 8.63 ± 0.41 |
| GTTTTATTTTCAATGTGTACTTATTATTTGATATAC [XGTACX_site6402] | 8.87 ± 0.23 |
| TATAAAAATATTTCTACACACATTAAAATATATATA [CACACA_site4770] | 8.3 ± 0.37 |
| CATTTGCCCAGGCACACACACATAAAAAGAAAAATA [CACACA_site356] | 8.4 ± 0.55 |
| AATGAAAGGATGCTGTGTACATATATATATATATAT [XGTACX_site7901] | 10.2 ± 0.49 |
| TGGTCTTTTAAACAAAAATATAAATTTTTAAATATG [CACACA_negctrl_site392] | 8.13 ± 0.42 |
| AATTTAATATAATGCACACATAAAAAAAAAAAATTC [CACACA_site1504] | 8.85 ± 0.12 |
| AGCTTGTGGATGCAGGTGCTACATTTGTTCTATAAT [GTGCAC_site9645] | 8.58 ± 0.33 |
| AAGAAAATTGTCTGAAGTACAAAACATTAATAATAT [XGTACX_site4864] | 8.74 ± 0.34 |
| AAGATAAATTATTATAAATCAATTGTGCCAACAATA [CACACA_negctrl_site144] | 8.21 ± 0.23 |
| TTTTTTTTGTGTTCAAGTACAAAATTTTAAAGGTCA [XGTACX_site4011] | 8.26 ± 0.35 |
| GGTTATTTCACAGAATGTACTTATTATATATAAAAT [XGTACX_site8886] | 8.49 ± 0.37 |
| TATATATATATATAAGCACACAAACAAAAAAAATTA [CACACA_site9293] | 10.1 ± 0.17 |
| TGTAGAACTCAATATTGTACATTATATAAAATGGGA [XGTACX_site3857] | 8.73 ± 0.2 |
| TTTAAATATATATATTGTACAAAAAAAAATAATAAA [XGTACX_site4759] | 8.71 ± 0.42 |
| ATAAAATTTATGACTTGTACATGTAAATAAAATATA [XGTACX_site762] | 8.86 ± 0.35 |
| TTTTTTTGCATTTCATGTACATATATTGAGCTTAAA [XGTACX_site8485] | 9.14 ± 0.52 |

| Sequence | gcPBM binding intensity (ln) |
| --- | --- |
| ATATATATATATTGTACACACATTTATGCATATATA [CACACA_site5738] | 9.97 ± 0.3 |
| GCCTTTTAGTATTTCACACACGTAAATGAGTATATC [CACACA_site4748] | 8.79 ± 0.4 |
| CTTCTTGTAAAATTTGCATGTAATTAAAAGAGAATG [TGCATGCA_site484] | 8.77 ± 0.28 |
| TTCCCTATCTTTTCAGTGCATTTTGTTTCCTACCTT [GTGCAC_site9813] | 9.25 ± 0.4 |
| TTCAAATGATTTATGTGTACATAAAATTATTTTTTA [XGTACX_site107] | 8.09 ± 0.21 |
| GATATAGGGCGTATGTTAATCGTGAAAGAGTGTCTT [GTGCAC_negctrl_site102] | 8.86 ± 0.52 |
| ATTGGTTCCCCTCTCTTTTCAATATATTTTTTTTTT [XGTACX_negctrl_site259] | 8.59 ± 0.4 |
| ATAAAGAATATAAATACACACTTAAATATAGATTAT [CACACA_site7804] | 8.42 ± 0.65 |
| TAATGAAGCTTATGCACACGTTCATTATTTATATTA [CACACA_site3219] | 8.79 ± 0.092 |
| AAAAAATTAAAAATCACACATAAATATATATAAAAA [CACACA_site4192] | 8.45 ± 0.4 |
| ATATTACAGTACAATACATGCATATGGAAAAAAAAA [TGCATGCA_site72] | 8.82 ± 0.52 |
| TACTTATATTGAAATGGTACAGATAAAAAAAAAAAA [XGTACX_site1407] | 8.64 ± 0.47 |
| ACATTCTATCTAAGTACACACATTAATTTTTTTTTT [CACACA_site4106] | 8.66 ± 0.32 |
| TTTTGTAATGTGAATATTTGTATATTATTTGTATAT [CACACA_negctrl_site1677] | 8.19 ± 0.22 |
| TAATATTTTTTGTGTACACATATATATATATATATA [CACACA_site5504] | 10.2 ± 0.53 |
| AATTTACATATATATTGTACATTTATGTATATATAT [XGTACX_site4186] | 8.38 |
| AAAAAAAAAAAAAACACACAAACATCAAATTATTAT [CACACA_site1838] | 8.48 ± 0.43 |
| GTGCCCTTTTTAATAACATGCAAATAACATATTTAT [TGCATGCA_site709] | 8.88 ± 0.29 |
| AATTAGATGGATAAATGTACATATGTGAATATATTT [XGTACX_site85] | 8.85 ± 0.52 |
| ATATAACACAAGGGCACACATATACCTTTCCTTTTT [CACACA_site412] | 8.77 ± 0.36 |
| TTTATATTATACGCACTAATATATATATATATATAT [TGCATGCA_negctrl_site47] | 10.1 ± 0.29 |
| GTAATATATATTAAGTAATAGTTTATCTTAGGAAAA [TGCATGCA_negctrl_site302] | 8.15 ± 0.47 |

| Sequence | gcPBM binding intensity (ln) |
| --- | --- |
| ATCTTATATCGTAGAGATTTTTTTTTTTTTTCATTT [XGTACX_negctrl_site140] | 8.12 ± 0.44 |
| AATTTCTTCTTAGGGTGTACAATTTGACATAAGGAA [XGTACX_site1773] | 8.68 ± 0.42 |
| GAGAGTACCTATATTGCATGCAGACTTTTTAAATAT [TGCATGCA_site564] | 10.1 ± 0.16 |
| TAAAATAAAAATTTATGTACACATAAAAAAACAAAA [XGTACX_site1112] | 8.66 ± 0.25 |
| GTTAAAATAATATGGTGTACAAATATATAAGTTCAT [XGTACX_site3262] | 8.79 ± 0.3 |
| TTTTTTTTTTTTTGTAGTACATTATGTATATTTTTA [XGTACX_site7810] | 8.44 ± 0.59 |
| TTAATAAGAGAGCAATAGGTGGACTGTTTCTTTTAT [CACACA_negctrl_site1239] | 8.36 ± 0.33 |
| ATATATATATATAAAAGTACTTATTTTTATTTACAT [XGTACX_site4299] | 9.87 ± 0.42 |
| TTTTTATAGGTAAAAACACACGCTAAAAATAATTAA [CACACA_site3731] | 8.67 ± 0.48 |
| ATTTATATTACCCTTGCATGTAGGTGCAATTTTTTT [TGCATGCA_site757] | 9.26 ± 0.099 |
| CATTTTGTTTTAAAGTGTACATTATGTAATATAAAA [XGTACX_site647] | 8.41 ± 0.35 |
| AGGTACTTTTTTAAAACACACATATAATAAATACAC [CACACA_site4730] | 8.84 ± 0.28 |
| TTTATAATTTATATCACACACATATATATATAGTAA [CACACA_site8] | 8.41 ± 0.45 |
| AAATAAATAAATAAATAAACAAATATGTATAAATGG [XGTACX_negctrl_site153] | 8.62 ± 0.25 |
| AATAAATATATATTCACACACAAACATATATATATA [CACACA_site4023] | 9.79 ± 0.3 |
| TATATATATATATATTGTACATATGTAACCTTTTAA [XGTACX_site3914] | 10 ± 0.29 |
| CCTATATAATATATTTGTACTTAATAATTAAAGTGT [XGTACX_site5151] | 8.56 ± 0.41 |
| ATAAGATTAAACATTGCACACAGAAATATATTTTCT [CACACA_site8743] | 8.61 ± 0.36 |
| TTTTTTAGATTACATAAATATAAATATAAATATATA [GTGCAC_negctrl_site459] | 7.87 ± 0.35 |
| TCAACTATCAATATAGTGCATTTTTTTTGGAAAACC [GTGCAC_site9927] | 8.39 ± 0.34 |
| TATCAAAATTAGTATACACACAAAATTAATCAAATA [CACACA_site7117] | 8.37 ± 0.37 |
| TCCCTTTGTATATATATATAAATATATATATATATA [CACACA_negctrl_site157] | 9.72 ± 0.26 |

| Sequence | gcPBM binding intensity (ln) |
| --- | --- |
| AGATTATATAAAAAAGTGCATATTTTCATTTTTTTT [GTGCAC_site9448] | 8.4 ± 0.3 |
| TTTATCGAATATAATAGTACATAAAAAAAAAAAAAA [XGTACX_site1734] | 8.38 ± 0.47 |
| CATTAAAATGGTAAATGTACATATCCATCTTCTCAC [XGTACX_site4636] | 8.46 ± 0.4 |
| ACATTTTTTTTGTGAGTCTTTGCGGCATCAAAATTT [XGTACX_negctrl_site348] | 8.36 ± 0.2 |
| AAAAAAGAAAAAAACTGTACATGATAAATATTTATT [XGTACX_site7270] | 8.65 ± 0.67 |
| TTATGAAGCAGACATGCATGTTATGGCTTAAATAAT [TGCATGCA_site492] | 9.18 ± 0.59 |
| CATTTTTACAACGTTGCACACTTCAAAAGGTTTACA [CACACA_site2760] | 8.9 ± 0.38 |
| TTTTAAATAAAAAAATTAAATTAAAATATATAAAAA [XGTACX_negctrl_site490] | 8.1 ± 0.33 |
| TGTTTATACAATATTTGTACATATATTTTTATTTTT [XGTACX_site4104] | 8.57 ± 0.43 |
| TATAAAAAAAAAAAAAGTACTTAAATATAAATAAAT [XGTACX_site5052] | 8.57 ± 0.47 |
| GATACTCTCTTTTAATGTACAAAATTTTAAAAATTA [XGTACX_site1781] | 8.8 ± 0.49 |
| GTTCCATGAGTATATACATGCATATATCTAGTTTAT [TGCATGCA_site388] | 9.04 ± 0.52 |
| AATGATATATTATAAACACACAAAGATGAATATATA [CACACA_site2818] | 8.64 ± 0.47 |
| AATTAAAAAAAATACACACACACATACCCATATATA [CACACA_site5767] | 8.77 ± 0.34 |
| ATTCATTCATATGTTACACACACACCCACCCATAAA [CACACA_site9066] | 9.29 ± 0.6 |
| TACCCTCGTATATATATACACACTAAAATACAGACA [CACACA_site4154] | 8.82 ± 0.52 |
| AATTTATGTTTTAAAAGTACTTTTCTAATTTATAAA [XGTACX_site1593] | 8.44 ± 0.35 |
| CTAAAGTAAATTTAAGCACACACAACGAATTTTTAT [CACACA_site8599] | 8.65 ± 0.45 |
| TATGTACAGACATATACACACCTCTATAATCTATAT [CACACA_site6482] | 8.78 ± 0.39 |
| TTATTTATAAACATATGTACTAATACATGATTAACA [XGTACX_site7645] | 8.35 ± 0.33 |
| GACATATATATAAAATGTACATATATATTTACATAT [XGTACX_site7822] | 8.44 ± 0.37 |
| TGATAATAAGCATACACACACACACTAGAAAAAAAA [CACACA_site4558] | 8.86 ± 0.53 |
